Hit rate of the full screen: of about 420,000 compounds, about 50,000 (12%) were called active. The shares of active, inactive and inconclusive entries below differ from those in the screen. Calls follow the shape of the dose curve; as a rule, active = well fitted inhibition curve with a large enough effect; inconclusive = small, poorly fitted or top-dose-only effect; inactive = flat fitted curve, though single readings scatter. No potency is given beside an inconclusive call; the fits are too rough.
Test: qHTS for Inhibitors of human tyrosyl-DNA phosphodiesterase 1 (TDP1): qHTS in cells in presence of CPT; also: nearly all actives have a fitted effect of over 55% in size
Conditions: chicken DT40 Tdp1-/-;hTDP1 cells + 20 nM CPT, ATP luminescence, 48 h; activity change, negative = growth inhibition: at 46.2 µM (top of the series) unless noted
Outline: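 Chicken DT40 Tdp1-/- cells complemented with human TDP1, 400 cells/well, exposed to compounds plus 20 nM camptothecin for at least 48 h at 37 C; viability read as ATP content by CellTiter-Glo luminescence.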
% is scaled to controls: 0 for no effect and ±100 for the full control effect; potency is read from the fitted curve at half-maximal effect; tags tell the direction and shape of the fitted curve.

Structure (SMILES)	Potency	activity change, negative = growth inhibition
O=C(CNC(=O)c1ccccc1F)OCc1cc(=O)n2nc(C3CCCCC3)sc2n1	inconclusive [inhibitor, single point]	
COc1ccccc1C(=O)Nc1ccc(Cc2ccncc2)cc1	inconclusive [inhibitor, partial curve]	
Cc1sc(NC(=O)CSc2nc(N)cc(N)n2)c(C#N)c1C	inconclusive [inhibitor, single point]	
CC(=O)Nc1cccc(NC(=O)CSc2nnc(Cc3cccn3C)n2CCc2ccccc2)c1	inconclusive [inhibitor, single point]	
Cc1ccc(-c2nc3ncccc3o2)cc1NC(=O)c1ccc([N+](=O)[O-])o1	active: 14.6 µM	
CC(=O)Nc1ccc(/C=N/N2C(=O)NC(C)(c3ccc(OC(F)F)cc3)C2=O)cc1 (configuration not stated)	inconclusive [inhibitor, single point]	
N#C/C(=C\c1cccnc1)C(=O)Nc1ccc(O)cc1F		inactive: -9.67%
Cc1cc(C)n2nc(/C(C#N)=C/c3ccccn3)c(C#N)c2n1	inconclusive [inhibitor, single point]	
COC(=O)c1cc(OC)c(OC)c(OC)c1N		inactive: -5.11%
CC(=O)Nc1ccc(NC(=O)CCSCCc2ccccn2)cc1	inactive	
O=C(CCCn1c(=S)[nH]c2ccccc2c1=O)N1CCN(c2cccc(Cl)c2)CC1	active: 16.4 µM	
O=C(NCC1CCCO1)c1sc(=S)n2c1[nH]c(=O)c1ccc(C(=O)N3CCCCC3)cc12 (configuration not stated)	inconclusive [inhibitor, partial curve]	
COc1cc2oc(=O)cc(-c3ccc(-c4ccc(C(F)(F)F)cc4)cc3)c2c(OC)c1OC	inconclusive [inhibitor, full curve]	
O=C1C=C(OCCF)CC(c2cccc(Cl)c2)O1 (configuration not stated)		inactive: 1.22%
Cc1ccc(NC(=O)c2c(NC(=O)Cc3ccccc3)sc3c2CCCC3)cc1	inconclusive [inhibitor, single point]	
CCOc1ccc2nc(SC3CC(=O)N(c4ccc(C)cc4)C3=O)sc2c1 (configuration not stated)	active: 4.61 µM	
COC(=O)c1c(-c2ccc(Br)cc2)csc1NC(=O)Cc1ccc(OC)c(OC)c1	inconclusive [inhibitor, partial curve]	
Cc1ccc(N2C(=O)c3cccc4c(Oc5ccccc5[N+](=O)[O-])ccc(c34)C2=O)c(C)c1	active: 10.3 µM	
c1ccc(CN(CC2=NCCN2)c2ccccc2)cc1	inconclusive [inhibitor, single point]	
CC1=NN(c2ccccc2)C(=O)C1(C)C		inactive: 5.12%
COc1ccc(CC(N)c2csc(NC(=O)Cc3ccccc3)n2)cc1 (configuration not stated)	inconclusive [inhibitor, single point]	
COc1ccc(-c2csc(C(C)(NC(C)=O)c3ccccc3)n2)cn1 (configuration not stated)	inconclusive [inhibitor, partial curve]	
CCOc1cc(/C=C2\N=C(C)OC2=O)cc(Br)c1OCC(=O)OC	inconclusive [inhibitor, single point]	
CC1CCC(=O)N(CCC#N)CC1 (configuration not stated)	inactive	

Structure (SMILES)	Potency	activity change, negative = growth inhibition
CCN(c1nc(N)c(C(=O)N=C(N)N)nc1Cl)C(C)C	active: 20.6 µM	
CCOC(=O)[C@]12CCCC=C1N(CCC1=CCCCC1)C(=O)[C@H](CC(=O)N1CCCC1)C2	active: 2.06 µM	
CN(CCO)C(=O)c1cn(C2CCCN(Cc3ccc(C(F)(F)F)cc3)C2)nn1 (configuration not stated)		inactive: 1.53% [at 9.04 µM]
CCCCNC(=O)C[C@@H]1C[C@@]2(C(=O)OC)CCCCC=C2N(Cc2ccco2)C1=O	inconclusive [inhibitor, single point]	
N#CC1(c2ccccc2)CCC(NCCc2ccccc2)CC1 (configuration not stated)	inconclusive [inhibitor, single point]	
COc1ccc2c(c1OC)C(=O)N1C2SC[C@H]1C(=O)NC1CCCCC1 (some centres not stated)		inactive: -29%
Clc1nc(CN2CCCCC2)nc2sc3c(c12)CCCC3	inconclusive [inhibitor, single point]	
Nc1c(C(=O)N/N=C/c2cccnc2)oc2nc(-c3ccco3)cc(-c3ccco3)c12	active: 2.91 µM	
Cc1csc(NC(=O)CSc2ncn(-c3ccccc3)n2)n1		inconclusive: -30.8% [inhibitor]
CCOc1ccc2nc(COC(=O)c3cccc([N+](=O)[O-])c3)c(C(C)=O)[n+]([O-])c2c1		inactive: 4.64%
O=C(CSc1nnc(-c2ccncc2)n1Cc1ccco1)OC1CCCCC1		inactive: -23.9%
O=C(CCN1C(=O)/C(=C/c2ccccc2Cl)SC1=S)Nc1cccnc1	inconclusive [inhibitor, single point]	
CN(C)c1ccc(CNC(=O)c2ccc(NC(=O)N3CCCCc4ccccc43)cc2)cc1	inconclusive [inhibitor, single point]	
Cc1ccsc1C(=O)NCCc1c[nH]c2ccccc12	inconclusive [inhibitor, single point]	
Cc1ccc(S(=O)(=O)N2CCOC2CNC(=O)C(=O)NCc2ccco2)cc1 (configuration not stated)		inactive: 3.4%
O=C(Cc1cccs1)Nc1ccccc1-c1nc2ccccc2[nH]1	inconclusive [inhibitor, single point]	
Cc1ccn2c(NCc3ccc4c(c3)OCO4)c(-c3ccc(O)cc3)nc2c1		inactive: -12.4%
COc1ccc(CNC(=O)CN(C(=O)CCC(=O)Nc2ccccn2)c2cccc(C)c2)cc1	inconclusive [inhibitor, single point]	
O=S(=O)(Nc1cc(F)ccc1F)c1ccc2[nH]c3c(c2c1)CCCCC3	inconclusive [inhibitor, single point]	
COC(=O)c1c(OCc2ccccn2)cc(=O)n2c1CCN(Cc1ccc3c(c1)CCCN3C)CC2	inconclusive [inhibitor, single point]	
O=C(Nc1ccc(-c2cscn2)cc1)C1CCCN(Cc2ccc(CO)o2)C1 (configuration not stated)		inactive: -16.9%
O=C(Cc1ccc(Cl)c(Cl)c1)Nc1cccc(S(=O)(=O)N2CCOCC2)c1	inconclusive [inhibitor, single point]	
COc1ccc(C(=O)Nc2ccccc2C(=O)NC(Cc2ccc(O)cc2)C(=O)NNC(=O)c2ccccc2)cc1 (configuration not stated)	inconclusive [inhibitor, full curve, poor fit]	
O=C(N/C(=C/c1ccccc1)C(=O)N1CCCCC1)c1ccc(Br)o1	inconclusive [inhibitor, single point]	

Structure (SMILES)	Potency	activity change, negative = growth inhibition
CC(=O)c1cc2c(cc1NC(=O)C1CC1)OCO2		inactive: -13.4%
O=C(C1CCC1)N1CCc2cc(S(=O)(=O)NCc3ccccn3)ccc21	inconclusive [inhibitor, partial curve]	
COc1cc2[nH]c(=S)nc(Nc3ccc(NC(C)=O)cc3)c2cc1OC	inconclusive [inhibitor, single point]	
OCCN1CCSC1=S		inactive: -11.8%
C/C(=C\C(=O)c1ccccc1)Nc1ccc(Cl)c(Br)c1	inconclusive [inhibitor, single point]	
COc1ccccc1N1CCN(S(=O)(=O)CCNC(=O)c2ccc(OC(C)C)cc2)CC1	inconclusive [inhibitor, single point]	
COc1ccc(CCNc2cc(C)nc(N)n2)cc1OC	inconclusive [inhibitor, single point]	
Cc1csc(NC(=O)CSc2nnc(-c3ccccn3)n2-c2ccc(C)c(C)c2)n1		inactive: -11.4%
Nc1nc(-c2ccccn2)nc(N)c1Cc1c(F)cccc1Cl	active: 1.84 µM	
COc1ccc(N2CCN(C(=O)C(Cc3ccccc3)NC(=O)c3ccccc3)CC2)cc1 (configuration not stated)	inconclusive [inhibitor, single point]	
COc1ccc(CC(=O)Nc2ccccc2N2CCOCC2)cc1OC		inactive: 7.27%
Cc1[nH]c2ccccc2c1C(c1ccncc1)N1CCC(C)CC1 (configuration not stated)	inconclusive [inhibitor, single point]	
O=C(Cc1ccccc1)NC(Nc1ccccc1)C(Cl)(Cl)Cl (configuration not stated)	inconclusive [inhibitor, full curve, poor fit]	
Cc1ccc(NC(=O)c2cc(C)nc3ccccc23)c(Br)c1	inconclusive [inhibitor, partial curve]	
CCc1nc(SCC(=O)N2CCN(c3ccccc3)CC2)c2oc3ccccc3c2n1	active: 25.9 µM	
Nc1c(C(=O)Nc2ccc3c(c2)OCCO3)nnn1CCc1ccccc1	active: 4.61 µM	
COc1ccc(C(C)(O)c2nc(-c3cc(F)cc(F)c3)cs2)cc1 (configuration not stated)	inconclusive [inhibitor, single point]	
Nc1nc2ncccn2c1-c1ccc(C(F)(F)F)cc1		inactive: 8.44%
Cc1c(C(=O)NC2CCCc3ccccc32)oc2ccccc12 (configuration not stated)	inconclusive [inhibitor, partial curve]	
CCOC(=O)C1=CN(Cc2cccc(F)c2)S(=O)(=O)N(CC)C1c1cccc(OC)c1 (configuration not stated)	inconclusive [inhibitor, single point]	
COc1ccccc1C1=NN(C(=S)Nc2ccccc2)C(c2ccco2)C1 (configuration not stated)	inconclusive [inhibitor, single point]	
O=C(C1CCN(S(=O)(=O)c2cccc3nonc23)CC1)N1CCCCC1		inactive: -1.05%
O=C1c2cccc(NCCNCCO)c2C(=O)c2cccc(NCCNCCO)c21	active: 0.366 µM	
CC(C)(C)OC(=O)N1CCC[C@H]1c1nnc(SCc2c(F)cccc2Cl)o1	inconclusive [inhibitor, single point]	

From PubChem BioAssay AID686979 (National Center for Advancing Translational Sciences (NCATS), 2013)
